Laboratory results taken from ChEMBL document CHEMBL1157539, “Thousands of chemical starting points for antimalarial lead identification” (Nature, 2010).
Over roughly 13,000 compounds, “IFI” has its median near 4; the highest 2% begin near 17. This is one part of the list.

Assay: GSK_TCMDC: Inhibition Frequency Index (IFI). The number of non-kinase HTS assays where a compound showed > 50 % inhibition, expressed as a percentage of the number of such assays in which the compound was tested (-0 is zero)
Format: functional

Structure (SMILES) | IFI
FC(F)(F)COc1c(CCNCCCCNCCc2ccc3ccccc3c2OCC(F)(F)F)ccc2ccccc12 | 19.3%
COCc1nc(-c2ccccc2)nc(N2CCN(C(=O)NC(C)C)CC2)c1Cc1ccccc1F | 3.45%
COc1ccc(CNC2CCN(C)CC2)cc1-c1ccc(S(=O)(=O)NC2CCC2)cc1 | 4.9%
C[C@@H](NC(=O)c1nn(-c2ccc(Cl)cc2)c(=O)c2ccccc12)C(C)(C)C | -0%
Clc1ccc2c(NCCc3ccccn3)ccnc2c1 | -0%
Cc1nc2nc(N)nc(N)c2c(C)c1Cc1ccc([N+](=O)[O-])cc1 | 1.6%
COc1ccc(Oc2ccc(-c3c(O)cc(C)nc3C)cc2)cc1 | 1.53%
CCOc1cc(C(=O)Nc2cccnc2)ccc1-c1nc2cc(Cl)c(Cl)cc2[nH]1 | -0%
CCOC(=O)N1CCN(C(=O)Nc2ccc(Cl)cc2)CC1 | 0%
C=CCCCNCC(NCCCNc1cc(=O)c2ccccc2[nH]1)c1cc(Br)cc(Br)c1 (centres undefined) | 2.82%
Cc1cccc2nc(-c3cccc(-c4cccc(NC(=O)COc5ccccc5C(N)=O)c4)c3)[nH]c12 | 6.09%
Cc1ccc(-n2c(Sc3ncnc4sccc34)nnc2N2CCCC2)cc1 | 6.06%
CC(CN(C)C)C(=O)Nc1cccc(-c2cccc(-c3nc4ccccc4[nH]3)c2)c1 (centres undefined) | 5.41%
Cc1cc(NC(=O)c2cccs2)ccc1OC1CCN(Cc2ccc(C#N)cc2)CC1 | 2.99%
Cc1ccc(Oc2ccccc2NC(=O)CCc2nc3ccccc3c(=O)[nH]2)cc1 | -0%
Cc1cc(N[C@@H](CC(C)C)C(=O)NCc2cccc(F)c2)nc(NCC2CCCCC2)n1 | 18.6%
CCN(CC)CCCNc1c2ccccc2nc2ccccc12 | 2.24%
Cc1ccc(C(NC(=O)c2ccccc2)c2ccc3cccnc3c2O)cc1 (centres undefined) | 9.09%
CN(Cc1cccc(O)c1)C1CCN(c2cc(NC(=O)c3cccc(F)c3)ccn2)CC1 | 0%
CN1CCN(c2cccc(Nc3nccc(NCC(O)c4ccccc4)n3)c2)CC1 (centres undefined) | 4.04%
O=C(Cc1ccccc1)NC1(c2ccccc2)CCN(CCc2c[nH]c3ccc(F)cc23)CC1 | 4.84%
COc1ccc(C=NNc2nc(O)cc(-c3ccccc3)n2)cc1OC | 0.8%
O=C(NCc1ccccc1)NC(CCCN1CCC(Oc2cccc(Cl)c2)CC1)c1ccc(Cl)c(Cl)c1 (centres undefined) | 9.22%
CC(C)(C)c1ccc(N2C(N)=NC(N)=NC2(C)C)cc1Cl | 3.73%

Structure (SMILES) | IFI
CCC(Cc1cnc2nc(N)nc(N)c2n1)c1ccc(C(=O)N[C@@H](CCC(=O)O)C(=O)O)cc1 (some centres undefined) | 2.21%
CO/C(=C\C=C\c1cc2cc(Cl)c(Cl)cc2[nH]1)C(=O)NCCCN1CCN(c2ccncc2)CC1 | 2.16%
COc1cc2nc(N3CCC(CNC(=O)c4ccc(-c5ccc(C(=O)N(C)C)cc5OCCO)cc4)CC3)nc(N)c2cc1OC | 0.91%
Fc1cccc(COc2ccc(Nc3ncnc4sc(C#C[C@H]5CC[C@H](CNCC(F)(F)F)N5)cc34)cc2Cl)c1 | 2.21%
CC(C)(C)[C@@H](Nc1ccc(C#N)c2ccccc12)C(=O)NC1(Cc2ccc(O)cc2)CCCC1 | -0%
Oc1cccc(Nc2ccnc3cc(-c4nccs4)ccc23)c1 | 7.26%
CS(=O)(=O)CCNCc1nc(-c2ccc3c(Nc4ccc(Cl)cc4F)ccnc3c2)cs1 | 7.69%
O=C(Nc1ccc2nccc(N3CCN4CCC[C@H]4C3)c2c1)c1ccc(Cl)c(Cl)c1 | 0%
Cc1ccc2[nH]c(C)cc(=NN=Cc3cccc(F)c3)c2c1 | 4.55%
Nc1c2c(nc3ccc(NC(=O)c4ccccc4)cc13)CCCC2 | 2.86%
CC1(CCCCN2CCC(Cc3ccccc3)CC2)C(=O)Nc2ccccc21 (centres undefined) | 2.9%
O=C(CSc1ccccn1)Nc1c(F)cccc1F | 0%
O=C(NCC1CCC(C(=O)NCCc2ccc(Cl)c(Cl)c2)CC1)c1ccc(O)c(-c2ccc(Cl)c(Cl)c2)c1 (centres undefined) | 1.52%
CCOC(=O)c1cn(CC)c2cc(F)c(OC3CC4CCC3(C)C4(C)C)cc2c1=O (centres undefined) | 2.24%
CC(C)=CCN1CCC(C(=O)Nc2ccc(-c3nc4ccccc4[nH]3)cc2)CC1 | 0%
CCOc1ccc2nc(N(CCCn3ccnc3)C(=O)C=Cc3cccs3)sc2c1 | -0%
COc1ccc2nccc([C@@H](O)CN3CCC(NCc4cc5cc([N+](=O)[O-])ccc5[nH]4)CC3)c2c1 | 5%
O=C(Nc1cccc(CN2CCCN(Cc3ccsc3)CC2)c1)c1ccc(-c2ccccc2)cc1 | 6.25%
Nc1cccc(CNCc2cccc(-c3ccc(-c4nc5cc(C(F)(F)F)ccc5[nH]4)cc3)c2)c1 | 12.4%
COc1cc2ncnc(Nc3ccc(OCc4ccccc4)c(OCc4ccccc4)c3)c2cc1OC | 1.6%
NCC1CCCN1Cc1cccc(-c2cccc(-c3nc4cc(F)ccc4[nH]3)c2)c1 (centres undefined) | 5%
COc1cccc(C(=O)NCc2cccs2)c1Oc1ccccc1 | 0%
COc1ccc(-c2cccc(NC(=O)c3cccc(Cl)c3)c2)cc1CN1CCNCC1 | 6.93%
OC(CNc1ccnc(Nc2cccc(CCN3CCOCC3)c2)n1)c1ccccc1 (centres undefined) | 9.28%

Structure (SMILES) | IFI
COc1ccccc1C1CCN(C2CCC(NC(=O)/C=C/c3cccc(Cl)c3)CC2)CC1 (centres undefined) | 6.67%
CN1CCCC1CCNCc1cccc(-c2cnc(N3CCCC(C)(C)C3)nc2)c1 (centres undefined) | 10%
Oc1ccc2[nH]c(-c3cccc(F)c3)nc2c1CN1CCC(N2CCCC2)CC1 | 0.96%
Fc1cccc(COc2ccc(Nc3ncnc4sc(C#CCNC5CCC5)cc34)cc2Cl)c1 | 2.22%
CC(C)c1ccc2oc(-c3ccc(NC(=O)c4ccc([N+](=O)[O-])o4)cc3)nc2c1 | 2.27%
Cc1ccc(NC(=O)NC2CCN(CCCCCNC(=O)/C=C/c3ccc(Cl)c(Cl)c3)CC2)cc1 | 6.04%
Fc1ccc2[nH]c(-c3ccc(-c4ccc(CN5CCCCC5)cc4)cc3)nc2c1 | 2.78%
N=C(NCCc1ccccc1Cl)c1ccc2ccccc2c1 | 5.15%
CCOc1ccc(Br)cc1/C=C/C(=O)Nc1ccc2c(c1)CCCN(C)C2 | 12.7%
CCCCOC(=O)c1ccc(Nc2cc(C)nc3ccc(OC)cc23)cc1 | 2.44%
O=C(c1ccco1)N1CCN(c2ccc([N+](=O)[O-])c(NC3CC3)c2)CC1 | 3.53%
CN(C)c1ccc(Br)c(Br)c1 | 0.72%
CC(=O)Nc1cccc(C(=O)Nc2cccc(-c3ccc(-c4nc5cc(F)ccc5[nH]4)s3)c2)c1 | 9.17%
CCc1ccc(NC(=O)c2ccc(CN3CCCN(Cc4cccc(Cl)c4)CC3)cc2)cc1 | 12%
N=C1N=C(N)NC2(CCCCC2)N1OCCOc1ccc(Cc2ccccc2)cc1 | 27.6%
COc1cccc(CNC[C@@H](O)[C@H](Cc2ccccc2)NC(=O)c2cc(C(C)C)cc(N3CCCC3=O)c2)c1 | 2.86%
Cc1cccc2nc(-c3ccc(-c4ccc(CNCCCNS(C)(=O)=O)cc4)s3)[nH]c12 | 2.97%
CSc1nccc(-c2ccc3ccnc(N)c3c2)n1 | 2.7%
Cc1cnc2cc3c(cc2c1N1CCN(C)CC1)NCC3 | 0.73%
CN(C)Cc1ccc(-c2cccc(NC(=O)c3cccc(Cl)c3)c2)cc1 | 2.91%
O=C(/C=C/c1ccc(Cl)c(Cl)c1)NCCCCCN1CCC(NC(=O)Nc2ccc(OC(F)F)cc2)CC1 | 6.04%
COc1ccc(-c2cccc(NC(=O)c3ccc(C#N)cc3)c2)cc1CN(C)CCN(C)C | 6.58%
N#Cc1ccc2c(c1)CCN(CCC1CCC(NC(=O)/C=C/c3cccc4ccccc34)CC1)CC2 (centres undefined) | 0.71%
CN(CCCN)CCCNc1ccnc2cc(Cl)ccc12 | 2.94%

Structure (SMILES) | IFI
COc1ccc2cc(C=NNc3nc4ccccc4[nH]3)c(Cl)nc2c1 | -0%
c1ccc(CCNCc2ccc(-c3ccc(CNc4ccc5ncccc5c4)cc3)cc2)cc1 | 11.8%
Cc1cc(F)ccc1N(c1nc(-c2cc(Cl)ccc2Cl)cs1)C1CCNC1 (centres undefined) | 21.4%
Cc1cc(OCCCNc2nc(NCCc3ccc(O)cc3)nc(N3CCNCC3)n2)c(Cl)c(C)c1Cl | 18.5%
CCOc1ccccc1NC(=O)C(Sc1nc(C)cc(C)c1C#N)c1ccccc1 (centres undefined) | 4.08%
CC(=O)c1ccc2cc(C(=O)NC3CCC(CCN4CCc5ccc(-c6noc(C)n6)cc5CC4)CC3)[nH]c2c1 (centres undefined) | 0.74%
c1ccc(C2CCC(N3CCC(N4CCN(c5ccccc5)CC4)CC3)CC2)cc1 (centres undefined) | 2.38%
Cc1nc2ccc(F)cc2n1C1CCN(C(=O)Cc2ccc(F)c(F)c2)CC1 | -0%
N=C(N)c1ccc(NC(=O)Cc2nc3cc(C(=N)N)ccc3[nH]2)cc1 | -0%
Cc1cccc2nc(-c3ccc(-c4ccc(CN5CCCC(O)C5)cc4)s3)[nH]c12 (centres undefined) | 2.82%
NC1=NC(c2ccccc2)N(c2ccc(Cl)c(Cl)c2)C(N)=N1 (centres undefined) | 2%
O=C(Nc1ccc(-c2cccc(-c3nc4cc(C(F)(F)F)ccc4[nH]3)c2)cc1)c1csnn1 | 1.82%
O=C(Nc1ccc(Cl)cc1)c1cc(Cl)cc2nc(C(F)(F)F)[nH]c12 | 27.1%
Cc1cc(Cl)c(S(=O)(=O)NC(C)(C)C)cc1OCC(=O)NC1CCCCC1 | 0%
Cc1cc(N(C)C)nc(Nc2ccc(NC(=O)COc3ccccc3)cc2)n1 | 11.8%
COCCn1c(-c2cccc(Cl)c2)nn(-c2ccc([N+](=O)[O-])cc2Cl)c1=S | 1.35%
c1ccc(Oc2ccc(Nc3ccnc(Nc4ccc(CN5CCOCC5)cc4)n3)cc2)cc1 | 20.2%
COc1ccc(C2CCN(CCCCNC(=O)c3ccc(NC(=O)c4ccc(Cl)cc4)cc3)CC2)c(C)c1 | 3.03%
O=C(Cn1c(CCc2cccc(F)c2F)cc(=O)c2cccnc21)N(CCCn1ccnc1)Cc1ccc(-c2ccc(C(F)(F)F)cc2)cc1 | 2.27%
O=S(=O)(c1ccc(OCc2ccc(Cl)cc2)cc1)c1cc2c(cc1OCc1ccccc1)CCN(CC1CC1)CC2 | 7.46%
CCOC(=O)c1nc(-c2ccccc2)[nH]c1NC(=S)NC1CCCCC1 | -0%
O=C(NC1CCC(CCN2Cc3cccc(C(F)(F)F)c3C2)CC1)c1cccc(-c2cccnc2)c1 (centres undefined) | 2.92%
